# Measurements: patent US20050203135A1, “Antagonists for treatment of CD/11CD18 adhesion receptor mediated disorders” (Genentech, Inc., priority 1998, published 2005)
# Biological target: CD11a/CD18-ICAM-1 interaction (recombinant human LFA-1 / human 5 domain ICAM-Ig) (Homo sapiens, UniProt P05107+P20701)
# Settings: PLM2(μM), PLM2 antibody capture format of LFA/ICAM assay
row,IC50 [µM],Structure (SMILES)
1,0.016,CCC(=O)NCCC(=O)NCCC[C@H](NC(=O)c1ccc(C(=O)NCc2cccc(O)c2)cc1Cl)C(=O)O [Example 181]
2,0.011,CCCC(=O)NCCC(=O)NCCC[C@H](NC(=O)c1ccc(C(=O)NCc2cccc(O)c2)cc1Cl)C(=O)O [Example 182]
3,0.013,CC(=O)NCCC(=O)NCCC[C@H](NC(=O)c1ccc(C(=O)NCc2cccc(O)c2)cc1Cl)C(=O)O [Example 183]
4,0.016,CCC(=O)NCC(=O)NCCC[C@H](NC(=O)c1ccc(C(=O)NCc2cccc(O)c2)cc1Cl)C(=O)O [Example 185]
5,0.015,CCCC(=O)NCC(=O)NCCC[C@H](NC(=O)c1ccc(C(=O)NCc2cccc(O)c2)cc1Cl)C(=O)O [Example 186]
6,0.017,CC(=O)NCC(=O)NCCC[C@H](NC(=O)c1ccc(C(=O)NCc2cccc(O)c2)cc1Cl)C(=O)O [Example 187]
7,0.018,CCC(=O)N1CCCC(C(=O)NCC[C@H](NC(=O)c2ccc(C(=O)NCc3cccc(O)c3)cc2Cl)C(=O)O)C1 (some centres unmarked) [Example 189]
8,0.016,CCCC(=O)N1CCCC(C(=O)NCC[C@H](NC(=O)c2ccc(C(=O)NCc3cccc(O)c3)cc2Cl)C(=O)O)C1 (some centres unmarked) [Example 190]

# Second part, the compound before the results:
row,Structure (SMILES),IC50 [µM]
1,CC(=O)NCc1cccc(C(=O)NC[C@H](NC(=O)c2ccc(C(=O)NCc3cccc(O)c3)cc2Cl)C(=O)O)c1 [Example 153],0.003
2,CCC(=O)NCc1ccc(C(=O)NC[C@H](NC(=O)c2ccc(C(=O)NCc3cccc(O)c3)cc2Cl)C(=O)O)cc1 [Example 155],0.006
3,CCCC(=O)NCc1ccc(C(=O)NC[C@H](NC(=O)c2ccc(C(=O)NCc3cccc(O)c3)cc2Cl)C(=O)O)cc1 [Example 156],0.009
4,CC(=O)NCc1ccc(C(=O)NC[C@H](NC(=O)c2ccc(C(=O)NCc3cccc(O)c3)cc2Cl)C(=O)O)cc1 [Example 157],0.007
5,CCC(=O)NCCC(=O)NC[C@H](NC(=O)c1ccc(C(=O)NCc2cccc(O)c2)cc1Cl)C(=O)O [Example 159],0.017
6,CC(=O)NCCC(=O)NC[C@H](NC(=O)c1ccc(C(=O)NCc2cccc(O)c2)cc1Cl)C(=O)O [Example 160],0.004
7,CC(=O)NCC(=O)NC[C@H](NC(=O)c1ccc(C(=O)NCc2cccc(O)c2)cc1Cl)C(=O)O [Example 162],0.004
8,CCCC(=O)N1CCCC(C(=O)NCCC[C@H](NC(=O)c2ccc(C(=O)NCc3cccc(O)c3)cc2Cl)C(=O)O)C1 (some centres unmarked) [Example 165],0.015
9,CC(=O)N1CCCC(C(=O)NCCC[C@H](NC(=O)c2ccc(C(=O)NCc3cccc(O)c3)cc2Cl)C(=O)O)C1 (some centres unmarked) [Example 166],0.018
10,CCCC(=O)N1CCC(C(=O)NCCC[C@H](NC(=O)c2ccc(C(=O)NCc3cccc(O)c3)cc2Cl)C(=O)O)CC1 [Example 169],0.006
11,CC(=O)N1CCC(C(=O)NCCC[C@H](NC(=O)c2ccc(C(=O)NCc3cccc(O)c3)cc2Cl)C(=O)O)CC1 [Example 170],0.007
12,O=C(NCc1cccc(O)c1)c1ccc(C(=O)N[C@@H](CCCNC(=O)C2CCCCN2)C(=O)O)c(Cl)c1 (some centres unmarked) [Example 172],0.037
13,CCC(=O)NCc1cccc(C(=O)NCCC[C@H](NC(=O)c2ccc(C(=O)NCc3cccc(O)c3)cc2Cl)C(=O)O)c1 [Example 173],0.01
14,CCCC(=O)NCc1cccc(C(=O)NCCC[C@H](NC(=O)c2ccc(C(=O)NCc3cccc(O)c3)cc2Cl)C(=O)O)c1 [Example 174],0.004
15,CC(=O)NCc1cccc(C(=O)NCCC[C@H](NC(=O)c2ccc(C(=O)NCc3cccc(O)c3)cc2Cl)C(=O)O)c1 [Example 175],0.005
16,CCC(=O)NCc1ccc(C(=O)NCCC[C@H](NC(=O)c2ccc(C(=O)NCc3cccc(O)c3)cc2Cl)C(=O)O)cc1 [Example 177],0.006
17,CCCC(=O)NCc1ccc(C(=O)NCCC[C@H](NC(=O)c2ccc(C(=O)NCc3cccc(O)c3)cc2Cl)C(=O)O)cc1 [Example 178],0.011
18,CC(=O)NCc1ccc(C(=O)NCCC[C@H](NC(=O)c2ccc(C(=O)NCc3cccc(O)c3)cc2Cl)C(=O)O)cc1 [Example 179],0.009
